Hit rate of the full screen: of about 48,000 compounds, about 450 (0.94%) were called active. Roughly 19% stayed inconclusive and do not appear here. Calls come from the whole dose curve; as a rule, active = well fitted inhibition curve with a large enough effect; inconclusive = small, poorly fitted or top-dose-only effect; inactive = no such curve, though single readings can be large or run the other way. The list shows a part of the results.
test: Primary qHTS for Identification of Small Molecule Inhibitors of Huntingtin Promoter Activity; settings: HEK293 HTT promoter firefly luciferase reporter (activity 0% = vehicle and -100% = no light), 24 h; series mostly up to 57.5 µM; activity change, negative = inhibition: at the top concentration; note: nearly all actives have a fitted effect of over 50% in size
Procedure, shortened: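 HEK293 Fluc reporter, 2,500 cells/well, 24 h pre-culture; cpds up to 57.5 uM final, 24 h 37 degrees C; Dual-Glo, 10 min RT; normalized vehicle = 0%, zero RLU = -100%.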

Activity change, negative = inhibition, inactive:
COc1ccc(CCNc2nc3c(-c4cccc(F)c4)nnn3c3ccccc23)cc1OC 12.8%, CC1CCN(c2nc3c(S(=O)(=O)c4ccc(Cl)cc4)nnn3c3ccsc23)CC1 4.44%, CCc1ccccc1NC(=O)c1ccc(CN2C(=O)CCn3nc(C)cc32)cc1 6.09%, Cc1ccccc1NC(=O)CSc1cn(CC(=O)N(C(C)C)C(C)C)c2ccccc12 -21.6%, COc1cc2c(cc1OC)n(Cc1ccc([N+](=O)[O-])cc1)c(=O)n1nc(-c3ccccc3)nc21 -8.51%, COc1cc(C(=O)N2CCOCC2)cc(OC)c1OC -3.71%, COc1cc2c(cc1OC)C(COc1ccc3c(C)cc(=O)oc3c1)N(C(=O)c1ccccc1F)CC2 (stereo unspecified) -3.98%, Cc1ccc(CNC(=O)CCNS(=O)(=O)c2cccc3nsnc23)cc1 -9.11%, CCn1cc(C(=O)N(C)c2ccc(C(C)C)cc2)c2cc(OC)c(OC)cc2c1=O -26%, Cc1c(CCC(=O)N2CCCCC2)c(=O)oc2cc3occ(C(C)(C)C)c3cc12 -10.1%, Cc1ccc2nc(NC(=O)CSc3ncc(C(=O)Nc4ccc(F)cc4)c(=O)n3C)sc2c1 11.2%, COCCn1cc(C(=O)NCCCOC(C)C)c2c3ccccc3n(C)c2c1=O 10.1%, Cc1ccc(Cc2nc3ccccc3nc2SCC(=O)N2CCN(c3ccc(F)cc3)CC2)cc1 -6.31%, CCOC(=O)c1noc2nc(C)n(Cc3cccc([N+](=O)[O-])c3)c(=O)c12 -6.35%, CCc1ccc(-n2nc(C)c3c(C)cc(=O)n(CC(=O)Nc4ccc(F)cc4C)c32)cc1 -6.91%, CCOC(=O)Cn1c(=O)n(C2CCCCC2)c2nc(-c3ccc(C(C)C)cc3)nc(C(N)=O)c21 -7.06%, Cc1ccc2c(CN3CCN(C(=O)c4ccc(Br)cc4)CC3)cc(=O)oc2c1 -9.84%, COc1ccccc1NC(=O)CSC1=Nc2ccccc2C2=NC(CC(=O)NCc3ccccc3)C(=O)N12 (stereo unspecified) -5.99%, CCOc1ccc(NC(=O)C2CCCN(c3nnc(C)c4c(C)n(-c5ccccc5)nc34)C2)cc1 (stereo unspecified) -21.2%, Cn1c(=O)c2c(nc(N3CCOCC3)n2Cc2ccc(Br)cc2)n(C)c1=O -5.45%, Cc1ccc(CN2CCN(C3CCNCC3)C(=O)C2=O)cc1 -9.62%, COc1ccc(NC(=O)C2CCN(c3ccc(Sc4ccc(C)cc4)nn3)CC2)c(OC)c1 0.424%, O=C(CSc1ccc(-c2ccccn2)nn1)Nc1ccc(F)cc1F -8.05%, CNS(=O)(=O)c1cn(CC(=O)Nc2ccc(C(C)=O)cc2)cc1S(=O)(=O)NC 20%, Cc1ccc(CN2CCN(C3CCN(C(=O)Nc4ccc(C)cc4Cl)CC3)C(=O)C2=O)cc1 -3.62%, CC(=O)N1CCc2cc(CNC(=O)c3ccccc3Br)ccc21 20.2%, CCCCNS(=O)(=O)c1ccc(C)c(-c2nnc3c4ccccc4c(C)nn23)c1 -14.3%, O=C(NCc1cccs1)C1CCN(C(=O)N2CCOc3ccc(Cl)cc32)CC1 -13.3%, CC(=O)N1CCc2cc(S(=O)(=O)NC(Cc3ccccc3)C(=O)NCc3ccc(C)cc3)ccc21 (stereo unspecified) -26.6%, COc1ccc(CCNC(=O)C2CCN(S(=O)(=O)c3c(C)noc3/C=C/c3ccc(C)cc3)CC2)cc1OC -6.09%, Nc1ccn(C[C@@H](CO)OCP(=O)(O)O)c(=O)n1 0.766% [at 25.2 µM], CC(C)CCN(C(=O)Nc1ccccc1)C(C)c1cccs1 (stereo unspecified) -36.4%, Cc1cc(C)c(Cn2c(C3CC(=O)N(c4ccc(F)cc4)C3)nc3ccccc32)c(C)c1 (stereo unspecified) -14.4%, CCOC(=O)c1ccc(NC(=O)CCn2ccc(C)n2)cc1 -0.783%, COc1cccc(NC(=O)CSc2nc(=O)n(Cc3ccncc3)c3c2CCC3)c1 0%, CCOC(=O)N1CCC2(CC1)OC(=O)C(C)=C2C(=O)NCc1cccc(F)c1 -5.03%, Cc1cccc(NC(=O)CN2C(=O)c3cccc4cccc2c34)c1C -9.2%, CCCN1CCN(c2ncnc3sc(C(=O)Nc4c(C)cc(C)cc4C)c(C)c23)CC1 -9.59%, CCc1ccc(C(=O)c2cn(CC(=O)Nc3ccc(OC)cc3)c3cc4c(cc3c2=O)OCO4)cc1 -10%, NC(=O)C1(N2CCCCC2)CCN(C(=O)Nc2ccc(F)cc2F)CC1 -2.66%, NS(=O)(=O)c1ccc(NC(=O)C(=O)Nc2ccc3nc4n(c(=O)c3c2)CCCCC4)cc1 13.2%, Cc1cccc(C(=O)N2c3nc(-c4ccco4)nn3C3(CCCCC3)[C@@H]3CCCC[C@@H]32)c1 -32%, O=c1ccc(-c2ccccc2)nn1Cc1ccc(F)cc1Cl -31.2%, O=C1c2c(O)cc(O)cc2OC(c2ccc(O)c(O)c2)C1O (stereo unspecified) -18.2%, CCOc1ccc2nc(N3CCCC(C(=O)Nc4cc(Cl)c(OC)cc4OC)C3)sc2c1 (stereo unspecified) 6.77%, Cc1c(C(=O)Nc2cccc(-c3nc4ccccc4s3)c2)oc2ccccc12 24.2%, CN(C)CCCOc1nn(Cc2ccccc2)c2ccccc12 -22.2%, CCCCCCSc1nnc2c(n1)OC(C)Nc1ccc(Br)cc1-2 (stereo unspecified) -32.1%, COc1ccc(Nc2nccc(NCCO)n2)cc1 35.4%, CCOC(=O)c1ccccc1NC(=O)COc1ccccc1-c1nnc(-c2ccccc2)o1 -29.2%, COc1ccc(CNC(=O)c2ccc(NC(=O)N3CCSc4ccccc43)cc2)cc1 -8%, COc1cc2c(=O)n(CCC(=O)NCC3CCCO3)c(=O)n(CC(=O)Nc3ccc(C)cc3C)c2cc1OC (stereo unspecified) -7.79%, Cc1ccccc1Cn1c2ccccc2c2cnn(CC(=O)NC3CCC(C)CC3)c(=O)c21 (stereo unspecified) -13.1%, COc1cc(NC(=O)C(CC(C)C)NS(=O)(=O)c2ccc3c(c2)CCN3C(C)=O)cc(OC)c1 (stereo unspecified) -13.8%, Cc1ccc(NC(=O)CC(C)S(=O)(=O)c2ccc3c(c2)NC(=O)CO3)c(Cl)c1 (stereo unspecified) 9.06%, COc1cc2c(cc1OC)C(CC(=O)O)N(C(=O)Nc1cc(OC)c(OC)c(OC)c1)CC2 (stereo unspecified) -6.78%, CCc1cccc(NC(=O)C(Cc2ccccc2)NS(=O)(=O)c2cccs2)c1 (stereo unspecified) -34.1%, CC(=O)c1ccc(Nc2cc(C)nc3nc(Cc4ccccc4)nn23)cc1 -4.48%, COc1ccc(N(CC(=O)NCCc2ccccc2)S(=O)(=O)c2c(C)nn(C)c2C)cc1 -11.3%, NS(=O)(=O)c1ccc(NC(=O)CCC(=O)O)cc1 -2.97%, CCCn1c2ccccc2c2cnn(CC(=O)Nc3cc(OC)c(OC)c(OC)c3)c(=O)c21 -10.3%, CCC1(C)CC(=O)c2c(ccc3oc(C(=O)Nc4ccc(C(C)=O)cc4)c(C)c23)O1 (stereo unspecified) -18.4%, CCOc1ccc(C(=O)NCCc2csc(-c3cccc(C)c3)n2)cc1 -9.45%, CC(C)CC(=O)Nc1nnc(S(=O)(=O)N2c3ccccc3CC2C)s1 (stereo unspecified) -10.5%, Cc1ccc(N2CCN(C(=O)Cn3ncc4c([nH]c5ccc(C)cc54)c3=O)CC2)c(C)c1 6.98%, CCc1ccc(C(=O)COC(=O)C(NC(=O)C2CCC(C)CC2)C(C)C)cc1 (stereo unspecified) 3.38%, CCOc1ccc(CCNC(=O)CCCn2c(=O)c3cccn3c3cccnc32)cc1 0.068%, COc1ccc(-c2cc3ccc(O)c(CN4CCN(C)CC4)c3oc2=O)cc1OC 2.54%, CC(=O)Nc1ccc(Nc2ccc3cc(S(=O)(=O)N4CCCCC4)ccc3n2)cc1 -18.4%, O=C(NC1CC(=O)N(c2ccc(Cl)cc2)C1)c1cc2ccccc2o1 (stereo unspecified) 2.54%, CC(=O)Oc1cc(C(C)C)c(OCCN(C)C)cc1C 12.4%, CCCc1ccc(OCC(=O)Nc2sc3c(c2C(=O)OCC)CCC(C(C)(C)C)C3)cc1 (stereo unspecified) -12.2%, Nc1cc(=O)nc(SCC(=O)Nc2ccccc2)n1CCc1ccccc1 0.403%, COC1CCC(N(C(=O)C2CCC(C)CC2)c2cc(C3=CCCCC3)sc2C(=O)O)CC1 (stereo unspecified) -25.5%, CCOC(=O)c1c(-c2ccc(OC)c(OC)c2)csc1NC(=O)c1ccccc1F -0.646%, COc1ccccc1Nc1nc(-c2ccccc2)c(CC(=O)O)s1 28.8%, COc1ccc2c(c1)c1c(c(=O)n(-c3cccc(C)c3)c(=O)n1CC(=O)NCCC1=CCCCC1)n2C -8.66%, Cc1ccc2nc3c(cc(C(=O)NC4CCCC4)c(=N)n3C(C)C)c(=O)n2c1 0.843%, O=c1c2cccnc2n(Cc2cccc(F)c2)c(=O)n1Cc1ccc(F)cc1 -24.6%, CCC(Nc1ccc(-c2nc(-c3cccnc3)no2)cc1[N+](=O)[O-])c1ccccc1 (stereo unspecified) 3.69%, Cc1ccccc1OCC(=O)Nc1ccc2nc(SCC(=O)N3CCCC3)sc2c1 1.62%, CCOC(=O)c1cc(-c2ccc(OC)c(S(=O)(=O)N3CCN(c4ccccc4)CC3)c2)on1 -15.8%, CCOC(=O)c1c(S(=O)(=O)N2CCC(C(=O)NCc3ccccc3Cl)CC2)c(C)n(C)c1C -6.66%, COc1ccc(N2CC(NC(=O)C(c3ccccc3)c3ccccc3)CC2=O)cc1 (stereo unspecified) 2.68%, COc1cccc(CNC(=O)c2ccc3c(c2)sc2nc(-c4cccc(OC)c4)cn23)c1 2.24%, CCOC(=O)c1ccc(NC(=O)Cn2nc(C)c3nn(-c4ccc(Cl)cc4)c(C)c3c2=O)cc1 -21%, CCc1nc2nc(C)cc(Nc3cc(C)ccc3C)n2n1 -19.3%, Cc1cccc(N2CCN(C(=O)c3cnn(-c4ccccc4)c3C3CCN(C(=O)OC(C)(C)C)CC3)CC2)c1C 2.35%, Cc1ccc(Nc2ncnc3c2nc2n3CCCC2)cc1F -10.4%, Clc1ccc(CSc2nncn3c2cc2occc23)cc1 -20%, CC(c1cc2ccccc2s1)N(O)C(N)=O (stereo unspecified), Cc1nc2nc[nH]n2c(=O)c1NS(=O)(=O)c1ccc(Br)cc1 -10.8%, CC1=C(c2ccc(Cl)cc2)S(=O)(=O)N=C1N1CCN(c2cc(C)ccc2C)CC1 -24.6%, Cc1cccc(N(C)S(=O)(=O)c2ccc3c(c2)NC(=O)CC(=O)N3)c1 -8.88%, CCCN1CCCc2cc(CN(CCCN3CCOCC3)C(=O)Nc3ccc(Cl)c(Cl)c3)ccc21 -29.8%, COc1cccc(Cn2c(=O)n(Cc3ccccc3)c(=O)c3c2c2cc(OC)ccc2n3C)c1 -5.86%

— PubChem BioAssay AID1508623 (National Center for Advancing Translational Sciences (NCATS), 2021)
